# Among all 420,000 compounds or so, about 64,000 (15%) were called active. This list was built around the results that the source calls inconclusive (neither active nor inactive); the mix of calls is not that of the screen. Calls follow the shape of the dose curve; as a rule, active = well fitted inhibition curve with a large enough effect; inconclusive = small, poorly fitted or top-dose-only effect; inactive = flat fitted curve, though single readings scatter. Potencies of inconclusive entries are left out as doubtful fits.
# Assay: qHTS for Inhibitors of human tyrosyl-DNA phosphodiesterase 1 (TDP1): qHTS in cells in absence of CPT; also: nearly all actives have a fitted effect of over 55% in size
# Settings: DT40 Tdp1-/- hTDP1 cells, no CPT, ATP luminescence, 48 h; activity change, negative = growth inhibition: at 46.2 µM (top of the series) unless noted
# Procedure, shortened: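 Chicken DT40 Tdp1-/- cells stably complemented with human TDP1 were seeded at 400 cells/well with DMSO in place of 20 nM camptothecin. After compound pinning, cells grew at least 48 hr at 37 °C; viability read by CellTiter-Glo luminescence.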
# % is scaled to controls: 0 for no effect and ±100 for the full control effect; potency is read from the fitted curve at half-maximal effect; tags tell the direction and shape of the fitted curve.
SMILES,Potency,"activity change, negative = growth inhibition"
Cc1cccc(N2CCN(C(=S)c3ccc(-c4ccccc4[N+](=O)[O-])o3)CC2)c1,"inconclusive [inhibitor, single point]",–
O=C(NCc1ccccc1Cl)C1=CC=CN2CCS(=O)(=O)N=C12,inactive,–
COc1ccc(-c2cc(C(=O)Nc3cnn(Cc4ccc(F)cc4)c3)no2)cc1OC,inactive,–
Cc1ccccc1NC(=O)Cn1nnc(-c2ccc(CN3CCC(C)CC3)cc2)n1,"inconclusive [inhibitor, partial curve]",–
CCCN(CCC)S(=O)(=O)c1cccc(C(=O)Nc2ccc3c(c2)OCO3)c1,"inconclusive [inhibitor, partial curve, poor fit]",–
CS(=O)(=O)N1CCc2cc(NC(=O)c3ccc(Cl)cc3Cl)ccc21,inactive,–
CCOC(=O)N1CCC(NCCNC(=O)c2ccccc2Cl)CC1,inactive,–
Nc1ccc(-c2c3ccc(=O)cc-3oc3cc(O)ccc23)cc1C(=O)O,inactive,–
CCCCOCCCN1CC(=O)N2C(C)c3[nH]c4ccccc4c3C[C@H]2C1=O (stereo partly drawn),"inconclusive [inhibitor, partial curve]",–
CCN(CC)c1ccc(C(=O)OCC(=O)NC2CCCCC2C)cc1 (stereo not drawn),active: 14.6 µM,–
CC(C)C(=O)Nc1ccc(N2CCN(C(=O)c3cccs3)CC2)cc1,"inconclusive [inhibitor, full curve, poor fit]",–
COc1ccc(CCCNC(=O)C2Cc3c(-c4ccc(NC(C)=O)cc4)ccnc3O2)cc1 (stereo not drawn),active: 18.4 µM,–
CC(C)(C)OC(=O)C[C@@H]1C/C=C\C[C@@H](CC(=O)NCCO)C(=O)N[C@H](C(C)(C)C)COC1=O,inactive,–
CC1(c2ccc(OC(F)F)cc2)NC(=O)N(CC(=O)NCCC2=CCCCC2)C1=O (stereo not drawn),inactive,–
CC(C)(C)NC(=O)C(c1ccc(-c2ccccc2)cc1)N(C[C@H]1CC[C@@H]([C@@H]2CC[C@H](CO)O2)O1)C(=O)c1cccc(Cl)c1 (stereo partly drawn),"inconclusive [inhibitor, single point]",–
O=C(c1ccccc1[N+](=O)[O-])n1cnc2ccccc21,inactive,–
N#CC1=C(N)N2C(=C(C#N)C13CCN(Cc1ccccc1)CC3)Nc1ccccc12,inactive,–
C=CCn1c(SCC(=O)NCc2ccccc2)nnc1-c1cc(Br)ccc1O,inactive,–
O=C(c1ccc(=O)[nH]c1)N1CCN(S(=O)(=O)c2cc(C(F)(F)F)ccc2Cl)CC1,–,inconclusive: -34.4% [inhibitor]
C/C(=N\NC(=O)c1c[nH]c2ccccc12)c1ccc2c(c1)OCO2,"inconclusive [inhibitor, single point]",–
CN(C)C(CNS(=O)(=O)c1ccc(F)cc1)c1cccnc1 (stereo not drawn),–,inconclusive: -31.1% [inhibitor]
c1ccc2[nH]c(CSc3nnc(-c4ccncc4)o3)nc2c1,"inconclusive [inhibitor, partial curve]",–
Cc1ccc(S(=O)(=O)CCC(=O)OCC(=O)N(C)Cc2ccccc2)cc1,inactive,–
Fc1ccc(-c2nc3c4ccccc4ccn3c2Cc2ccsc2)cc1,active: 14.6 µM,–
COc1cc2c(cc1NC(=O)C(C)Oc1ccccc1)oc1ccccc12 (stereo not drawn),"inconclusive [inhibitor, single point]",–

SMILES,Potency,"activity change, negative = growth inhibition"
COc1cccc(NC(=O)C2CCCC2)c1,inactive,–
COc1ccc2nc(N3C(=O)C(O)=C(C(=O)c4ccco4)C3c3ccco3)sc2c1 (stereo not drawn),inactive,–
Cc1c(C)n(Cc2ccc(F)cc2)c2ccc(C(=O)N3CCN(c4ccccn4)CC3)cc12,inactive,–
Cc1cc[n+]2cc(-c3cccc([N+](=O)[O-])c3)c(-c3cccc([N+](=O)[O-])c3)cc2c1,inactive,–
Cc1cc(C)c2c(N)c(C(=O)Nc3ccccc3C(F)(F)F)sc2n1,"inconclusive [inhibitor, partial curve]",–
COc1ccccc1C/C(N)=N/OC(=O)c1cccc([N+](=O)[O-])c1C,"inconclusive [inhibitor, single point]",–
NCc1nc(-c2ccc(Cl)cc2)no1,"inconclusive [inhibitor, single point]",–
CS(=O)(=O)c1ccc(C(=O)OC2CCOC2=O)cc1[N+](=O)[O-] (stereo not drawn),"inconclusive [inhibitor, partial curve]",–
COc1ccc(C)cc1NC(=O)CCN1CCN(C/C=C/c2ccccc2)CC1,"inconclusive [inhibitor, single point]",–
O=C(CCN1CCCCC1)N1CCc2c([nH]c3ccccc23)C1c1cccnc1 (stereo not drawn),inactive,–
Nc1ccc(-n2nncc2-c2ccco2)cc1,inactive,–
Oc1ccc(C[C@H]2CNCCN2CC2(c3ccccc3)CC2)cc1,"inconclusive [inhibitor, partial curve]",–
Cc1ccc(C)c(Cn2c(=O)n(CCCC(=O)NCc3ccc4c(c3)OCO4)c(=O)c3sccc32)c1,active: 14.6 µM,–
Cc1cc(CNC(=O)c2cccc([N+](=O)[O-])c2)c2ccccc2n1,"inconclusive [inhibitor, single point]",–
NNc1nc(-c2ccccc2)cc(-c2ccccc2O)n1,"inconclusive [inhibitor, single point]",–
Cc1ccc(N2C(=O)N(Cc3cccc(Cl)c3)c3ccccc3S2(=O)=O)cc1,"inconclusive [inhibitor, single point]",–
CCC1CN(C(=O)Nc2cc(Cl)ccc2C(=O)OC)c2ccccc2S1 (stereo not drawn),"inconclusive [inhibitor, single point]",–
CC(Sc1nc2ccccc2n1C)C(=O)NC(c1ccccc1)c1ccccc1 (stereo not drawn),inactive,–
CN1/C(=C/C(=O)COC(=O)CN2C(=O)C3CC=CCC3C2=O)C(C)(C)c2ccccc21 (stereo not drawn),active: 16.4 µM,–
COc1ccc(OC)c(NC(=O)COCc2cc(-c3ccc(F)cc3)on2)c1,"inconclusive [inhibitor, single point]",–
COc1cc(/C=C(/C#N)c2nc3ccccc3[nH]2)ccc1Oc1ncccc1[N+](=O)[O-],"inconclusive [inhibitor, full curve]",–
O=C(CCNC(=O)c1ccccc1)NN=Cc1ccc(Br)o1,"inconclusive [inhibitor, full curve, poor fit]",–
CC(=O)Nc1ccc2c(c1)ncn2C,inactive,–
COc1ccc(C(=O)C[n+]2ccccc2C)cc1,active: 20.6 µM,–
Cc1cccc2cc(CN(Cc3cccs3)C(=S)NCc3ccco3)c(=O)[nH]c12,"inconclusive [inhibitor, single point]",–

SMILES,Potency,"activity change, negative = growth inhibition"
CN(C(=O)c1nn(C)c2c1CS(=O)(=O)c1ccccc1-2)c1cccc(Cl)c1,"inconclusive [inhibitor, single point]",–
Cc1cc([N+](=O)[O-])ccc1NCc1ccccc1[N+](=O)[O-],inactive,–
Cn1c2c(c(=O)n(C)c1=O)C(c1ccccc1Cl)C(C#N)=C(N)O2 (stereo not drawn),inactive,–
O=c1[nH]cnc2c1ccn2C1OC(CO)C(O)C1O (stereo not drawn),active: 0.146 µM,–
Cc1cc(NC(=O)CSc2nccn2-c2cccc(Cl)c2)no1,inactive,–
CSCC[C@@H](C(=O)NCCCCCCCCCCC(=O)N1CCNCC1)n1cc(CCO)nn1,–,inconclusive: -33.3% [inhibitor]
CCCSc1ncc(Cl)c(C(=O)N2CCN(c3ccc(OC)cc3)CC2)n1,"inconclusive [inhibitor, partial curve]",–
C[C@@]12CCC=C[C@H]1[C@H](c1ccc3ccccc3c1)N(Cc1ccccc1)C2=O,"inconclusive [inhibitor, single point]",–
Cc1cccc(NC(=O)c2ccc([N+](=O)[O-])s2)n1,active: 5.8 µM,–
COc1cc(Br)cc(C(=O)N2CCc3ccccc32)c1OC,"inconclusive [inhibitor, single point]",–
COC(=O)C1=C(N)OC2=C(C(=O)CC(C)(C)C2)C1c1ccoc1 (stereo not drawn),"inconclusive [inhibitor, single point]",–
C[C@H](NC(=O)[C@@H]1CSC2c3ccccc3C(=O)N21)C(=O)NCc1c(F)cccc1Cl (stereo partly drawn),"inconclusive [inhibitor, single point]",–
COc1ccc(-c2noc(C3CCCN(C(=O)c4ccc(F)cc4)C3)n2)cc1 (stereo not drawn),"inconclusive [inhibitor, single point]",–
COc1ccccc1N1CCN(C(=O)CSc2nc(-c3ccco3)cc(C(F)(F)F)n2)CC1,active: 23.1 µM,–
O=C(N/N=C/c1ccc([N+](=O)[O-])o1)c1cc(-c2ccncc2)nc2ccccc12,active: 3.16 µM,–
CCOc1ccccc1NC(=O)Cn1nnc(C(=O)NCc2ccc3c(c2)OCO3)c1N,active: 2.59 µM,–
CCc1nc2ccccc2c(C(=O)OCC(=O)NC2CC2)c1C,"inconclusive [inhibitor, full curve, poor fit]",–
Cc1cc(C)n2nc(SCC(=O)N(CCC#N)c3ccccc3F)nc2n1,inactive,–
CC(Sc1nnc2n1CCCCC2)C(=O)Nc1cccc(S(=O)(=O)N2CCOCC2)c1 (stereo not drawn),inactive,–
CCOC(=O)c1c(C)[nH]c(C(=O)NNC(=O)c2ccccc2F)c1C,inactive,–
CCC(C)c1ccc(OCC(=O)Nc2ccc(-c3nc4ncccc4o3)cc2)cc1 (stereo not drawn),"inconclusive [inhibitor, single point]",–
Cc1ccc2nc(-c3ccc(C)o3)c(Nc3ccc(Cl)cc3)n2c1,"inconclusive [inhibitor, partial curve]",–
CC(C)(C)n1cnc2cc(NCc3ccc(Br)cc3)ccc21,"inconclusive [inhibitor, single point]",–

# Source: PubChem BioAssay AID686978 (National Center for Advancing Translational Sciences (NCATS), 2013)
